Experimental data taken from PubChem BioAssay (NCI).
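Each compound was tested at five concentrations against cells in 96-well plates for 48 hours. The concentration for 50% growth inhibition is given as GI50. Definition used: TGI = concentration required for complete inhibition of growth.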

system: NCI-H322M lung; experiment: NCI anticancer screen, dose series, 48 h

Compared with C=C(C=O)[C@@H]1CC[C@]2(C)[C@H](CC=C3[C@H]4[C@@H](C)[C@H](C)CC[C@]4(C(=O)OC)CC[C@]32C)[C@@]1(C)CCC#N, C=C(C)[C@@H]1CC[C@]2(COS(C)(=O)=O)CC[C@]3(C)[C@H](CC[C@@H]4[C@@]5(C)CCCNC(C)(C)[C@@H]5CC[C@]43C)[C@@H]12 is 1.5-fold lower in GI50: 2370 nM for the first, 1560 nM for the second.

Compared with Cc1ccc2c(n1)C(=O)C(Cl)=C(Nc1cccc(C(C)C)c1)C2=O, O=C1C(N2CCN(c3ccccc3)CC2)=C(Cl)C(=O)c2ncccc21 is 3.3-fold higher in GI50: 4570 nM for the first, 15000 nM for the second.

Going from COCCNc1ccc2ncc(C#Cc3cncc(C(=O)Nc4ccc(CN5CCN(C)CC5)c(C(F)(F)F)c4)c3)n2n1 to CN1CCN(c2nc(-c3csc(-c4ccccc4)n3)cc3ccccc23)CC1, the GI50 rises from 190 nM to 2670 nM (14-fold).

First: COc1ccc2c(c1)c(CC(=O)[Se]CCC#N)c(C)n2C(=O)c1ccc(Cl)cc1
Second: COc1cc2c3c(cc4c5c(ccc4c3c1OC)OCO5)N(CCN(C)C)C2=O
The GI50 of the first is 13-fold higher: 2360 nM for the first, 175 nM for the second.

First: C=C(C=O)[C@@H]1CC[C@]2(C)[C@H](CC=C3[C@H]4[C@@H](C)[C@H](C)CC[C@]4(C(=O)OC)CC[C@]32C)[C@@]1(C)CCC#N
Second: C=C(C)[C@@H]1CC[C@]2(COS(C)(=O)=O)CC[C@]3(C)[C@H](CC[C@@H]4[C@@]5(C)CCCNC(C)(C)[C@@H]5CC[C@]43C)[C@@H]12
The TGI of the first is 2.1-fold higher: 6510 nM for the first, 3060 nM for the second.

Compared with Cc1ccc2c(n1)C(=O)C(Cl)=C(Nc1cccc(C(C)C)c1)C2=O, O=C1C(N2CCN(c3ccccc3)CC2)=C(Cl)C(=O)c2ncccc21 is 1.6-fold higher in TGI: 17300 nM for the first, 28200 nM for the second.

First: COCCNc1ccc2ncc(C#Cc3cncc(C(=O)Nc4ccc(CN5CCN(C)CC5)c(C(F)(F)F)c4)c3)n2n1
Second: CN1CCN(c2nc(-c3csc(-c4ccccc4)n3)cc3ccccc23)CC1
The TGI of the first is 12-fold lower: 872 nM for the first, 10200 nM for the second.

Compared with COc1ccc2c(c1)c(CC(=O)[Se]CCC#N)c(C)n2C(=O)c1ccc(Cl)cc1, COc1cc2c3c(cc4c5c(ccc4c3c1OC)OCO5)N(CCN(C)C)C2=O is 7-fold lower in TGI: 6840 nM for the first, 971 nM for the second.
